# T1: Human VEGF (dendritic cell assay) (human, UniProt P15692-4 27-191, limits assumed)
# T1 sequence (looked up): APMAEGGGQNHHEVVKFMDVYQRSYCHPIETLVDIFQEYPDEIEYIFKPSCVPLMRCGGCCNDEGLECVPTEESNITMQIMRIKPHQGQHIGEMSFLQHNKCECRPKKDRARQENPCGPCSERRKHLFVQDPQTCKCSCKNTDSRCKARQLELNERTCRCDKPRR
# T2: GST-hVEGF121 (human, UniProt P15692-9 27-147)
# T2 construct: plate coating of the VEGF ELISAs; also called human VEGF; not shown: glutathione S-transferase (GST) fusion partner
# T2 sequence (looked up): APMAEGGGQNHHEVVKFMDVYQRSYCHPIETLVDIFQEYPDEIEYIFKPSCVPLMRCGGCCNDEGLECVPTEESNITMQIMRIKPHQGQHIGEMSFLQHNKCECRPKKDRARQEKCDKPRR
# B1: Nb-FF2_hFc (Fc fusion)
# chain: QVQLVESGGGLVQPGGSLRLSCAASGTEDGRLLTLGGSWFRQAPGQGLEAVAAIGAGDRGGATYYADSVKGRFTISRDNSKNTLYLQMNSLRAEDTAVYYCTALYERQPQLAATKVARKWGQGTLVTVSSAHHSEDPSSKAPKAPAQVQLVESGGGLVQPGGSLRLSCAASGTEDGRLLTLGGSWFRQAPGQGLEAVAAIGAGDRGGATYYADSVKGRFTISRDNSKNTLYLQMNSLRAEDTAVYYCTALYERQPQLAATKVARKWGQGTLVTVSSRGGGGSGGGGSA[no letters for human IgG1 Fc with E283K (EU numbers)]
# notes: Fusion to human IgG1 Fc, from CHO cells
# B2: Nb-FV1_hFc (Fc fusion)
# chain: QVQLVESGGGLVQPGGSLRLSCAASGTEDGRLLTLGGSWFRQAPGQGLEAVAAIGAGDRGGATYYADSVKGRFTISRDNSKNTLYLQMNSLRAEDTAVYYCTALYERQPQLAATKVARKWGQGTLVTVSSAHHSEDPSSKAPKAPAQVQLVESGGGLVQPGGSLRLSCAASGNSAEDRLYNSYTWFRQAPGQGLEAVAAISSHFSAGLTYYADSVKGRFTISRDNSKNTLYLQMNSLRAEDTAVYYCEITSHASHNDAWSTPRTVWGQGTLVTVSSRGGGGSGGGGSA[no letters for human IgG1 Fc with E283K (EU numbers)]
# notes: homodimer; also called Nb-FV1_Fc
# B3: Nb-VV6_hFc (Fc fusion)
# chain: QVQLVESGGGLVQPGGSLRLSCAASGNSAEDRLYNSYTWFRQAPGQGLEAVAAISSHFSAGLTYYADSVKGRFTISRDNSKNTLYLQMNSLRAEDTAVYYCEITSHASHNDAWSTPRTVWGQGTLVTVSSAHHSEDPSSKAPKAPAQVQLVESGGGLVQPGGSLRLSCAASGNSAQDRLYNSYTWFRQAPGQGLEAVAAISSHFSAGLTYYADSVKGRFTISRDNSKNTLYLQMNSLRAEDTAVYYCEITSHASHNDAWSTPRTVWGQGTLVTVSSRGGGGSGGGGSA[no letters for human IgG1 Fc with E283K (EU numbers)]
# notes: homodimer
# B4: Nb-F3_hFc (Fc fusion)
# chain: QVQLVESGGGLVQPGGSLRLSCAASGTEDGRLLTLGGSWFRQAPGQGLEAVAAIGAGDRGGATYYADSVKGRFTISRDNSKNTLYLQMNSLRAEDTAVYYCTALYERQPQLAATKVARKWGQGTLVTVSSRGGGGSGGGGSA[no letters for human IgG1 Fc with E283K (EU numbers)]
# notes: as for B1
# B5: Nb-V1_hFc (Fc fusion)
# chain: QVQLVESGGGLVQPGGSLRLSCAASGNSAEDRLYNSYTWFRQAPGQGLEAVAAISSHFSAGLTYYADSVKGRFTISRDNSKNTLYLQMNSLRAEDTAVYYCEITSHASHNDAWSTPRTVWGQGTLVTVSSRGGGGSGGGGSA[no letters for human IgG1 Fc with E283K (EU numbers)]
# notes: as for B1
# B6: Nb-VF3_hFc (Fc fusion)
# chain: QVQLVESGGGLVQPGGSLRLSCAASGNSAEDRLYNSYTWFRQAPGQGLEAVAAISSHFSAGLTYYADSVKGRFTISRDNSKNTLYLQMNSLRAEDTAVYYCEITSHASHNDAWSTPRTVWGQGTLVTVSSAHHSEDPSSKAPKAPAQVQLVESGGGLVQPGGSLRLSCAASGTEDGRLLTLGGSWFRQAPGQGLEAVAAIGAGDRGGATYYADSVKGRFTISRDNSKNTLYLQMNSLRAEDTAVYYCTALYERQPQLAATKVARKWGQGTLVTVSSRGGGGSGGGGSA[no letters for human IgG1 Fc with E283K (EU numbers)]
# notes: as for B1
# Legend:
# [1] = molecular target: T3, Recombinant human bFGF (human, UniProt P09038 fragment, limits assumed); experiment: competition ELISA, coated bFGF, competitor FGFR1
# T3 construct: Bought (Sigma); also called hFGF-2; human basic fibroblast growth factor
# [2] = molecular target: T3, Recombinant human bFGF; experiment: ELISA, coated human bFGF, anti-human IgG detection
# T3 sequence (P09038 143-288 limits assumed): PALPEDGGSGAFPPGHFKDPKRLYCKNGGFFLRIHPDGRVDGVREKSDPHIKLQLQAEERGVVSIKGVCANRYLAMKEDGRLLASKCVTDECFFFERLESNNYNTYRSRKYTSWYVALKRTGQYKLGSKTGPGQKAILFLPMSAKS
# [3] = molecular target: VEGF (soluble stimulus added to cell cultures); experiment: cell-based or functional assay
# [4] = molecular target: T1, Human VEGF (dendritic cell assay); experiment: cell-based or functional assay
# [5] = molecular target: T2, GST-hVEGF121; experiment: ELISA, coated GST-hVEGF, anti-human IgG detection
# [6] = molecular target: T2, GST-hVEGF121; experiment: competition ELISA, coated GST-hVEGF, competitor VEGFR2
Binder,IC50 [1] [nM],EC50 [2] [nM],EC50 [5] [nM],IC50 [6] [nM],other results
B1,6.69,2.1,–,–,–
B2,27,4.55,1.79,5.56,"PD1 expression (%) in CD8+ cells treated with VEGF, VHH 1 µg/mL [3]: 60%; PD1 expression (%) in CD8+ cells treated with VEGF, VHH 5 µg/mL [3]: 51%; PD1 expression (%) in CD8+ cells treated with VEGF, VHH 10 µg/mL [3]: 43%; CD86 (MFI) on dendritic cells +VEGF +LPS, VHH 1 µg/mL [4]: 2000 MFI; CD86 (MFI) on dendritic cells +VEGF +LPS, VHH 5 µg/mL [4]: 3150 MFI; CD86 (MFI) on dendritic cells +VEGF +LPS, VHH 10 µg/mL [4]: 18000 MFI; MHCII (MFI) on dendritic cells +VEGF +LPS, VHH 1 µg/mL [4]: 5440 MFI; MHCII (MFI) on dendritic cells +VEGF +LPS, VHH 5 µg/mL [4]: 5300 MFI; MHCII (MFI) on dendritic cells +VEGF +LPS, VHH 10 µg/mL [4]: 18800 MFI"
B3,–,–,0.784,1.12,–
B4,26.9,4.51,–,–,–
B5,–,–,1.64,5.59,–
B6,26.8,4.65,1.88,5.46,–

# Reference: US20250326826A1 (CENTRO DE INGENIER A GEN TICA Y BIOTECNOLOG A, published 2025)
